The full ranking holds about 33,000 sequences; the median of “E-score (-0.5 to 0.5)” is about -0.054, and the highest 2% start at about 0.39. The list shows a part of the results.
These sequences were tested against Ylr278c (UniProt Q05854) (assay: PBM E-score (8-mer binding enrichment) (E-score (-0.5 to 0.5)); higher = stronger / more preferred TF binding; most listed sequences are background and not binding sites). Details: protein concentration: 200 nM; construct: GST-DNA-binding domain.
Summary of the method: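 Bound GST-tagged yeast transcription factors, applied at about 100-200 nM to double-stranded universal all-10-mer Agilent arrays, were detected with fluorescent anti-GST. Scans were normalised with masliner. A modified Wilcoxon-Mann-Whitney statistic, the E-score, was assigned to each ungapped eight-base word pooled with its reverse complement by the Universal PBM Analysis Suite.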
CGGCATCA was tested, and the “PBM E-score” value was 0.14.
In the case of CGTAATGA, the “PBM E-score” value is reported as -0.0824.
For ATAAGGAT, the “PBM E-score” value was -0.161.
With ACAGCTTA the “PBM E-score” value was -0.187.
In the case of CTTGAAGA, the “PBM E-score” value is reported as -0.237.
For ACTATACA, the “PBM E-score” value was -0.199.
CGAGGGTA was tested, and the “PBM E-score” value was -0.0904.
For TAATATGA, the “PBM E-score” value was 0.0234.
For TGATCCAA, the “PBM E-score” value was 0.0223.
For ATTGCGTA, the “PBM E-score” value was -0.158.
For AAGTGGCC, the “PBM E-score” value was -0.0233.
In the case of AAGTACTA, the “PBM E-score” value is reported as -0.0986.
With AATGACGT the “PBM E-score” value was -0.119.
For ATAGCTAT, the “PBM E-score” value was -0.106.
With CATCCGCG the “PBM E-score” value was 0.197.
In the case of ACTTTGAC, the “PBM E-score” value is reported as -0.203.
ATGAAGCA was tested, and the “PBM E-score” value was -0.15.
For GATTCCTA, the “PBM E-score” value was 0.0559.
ACTAGAAA was tested, and the “PBM E-score” value was -0.106.
AACCCAAC was tested, and the “PBM E-score” value was -0.103.
TAGTCCCA was tested, and the “PBM E-score” value was -0.284.
With AGCGCATG the “PBM E-score” value was -0.142.
CATTAGCG was tested, and the “PBM E-score” value was -0.0197.
In the case of AGCAGAAA, the “PBM E-score” value is reported as 0.0343.
ATGCTCAG was tested, and the “PBM E-score” value was -0.125.
With AGAGATGA the “PBM E-score” value was -0.129.
CTCAATAC was tested, and the “PBM E-score” value was -0.0294.
In the case of GTTCATGA, the “PBM E-score” value is reported as -0.0154.
For GGTCAACA, the “PBM E-score” value was -0.0909.
In the case of CATTTTGC, the “PBM E-score” value is reported as 0.168.
In the case of CATCAACC, the “PBM E-score” value is reported as 0.067.
For AACCAGCG, the “PBM E-score” value was -0.0114.
In the case of AGGGATAC, the “PBM E-score” value is reported as -0.253.
GTTGCTGA was tested, and the “PBM E-score” value was -0.0156.
In the case of CCTTTTCC, the “PBM E-score” value is reported as 0.00074.
With ACAAACAC the “PBM E-score” value was 0.0607.
With GGAGATGA the “PBM E-score” value was 0.2.
AAACGAAC was tested, and the “PBM E-score” value was -0.078.
With CGCTACCA the “PBM E-score” value was 0.0112.
In the case of TACGAGCA, the “PBM E-score” value is reported as -0.0633.
In the case of CAACACCA, the “PBM E-score” value is reported as -0.159.
For GGTGATGA, the “PBM E-score” value was 0.0127.
CTTCATTA was tested, and the “PBM E-score” value was -0.109.
AGCTGACG was tested, and the “PBM E-score” value was -0.284.
In the case of GGACCAAC, the “PBM E-score” value is reported as 0.127.
CGACATGA was tested, and the “PBM E-score” value was 0.0506.
For TAGCTTCA, the “PBM E-score” value was -0.278.
In the case of CTACTTCC, the “PBM E-score” value is reported as 0.0966.
TAGTGATA was tested, and the “PBM E-score” value was -0.399.
For CGAGGTAC, the “PBM E-score” value was -0.0988.
In the case of AAATGGGC, the “PBM E-score” value is reported as -0.0956.
For ATATTCTA, the “PBM E-score” value was -0.0831.
With CATATGTA the “PBM E-score” value was -0.253.
In the case of GACGTAGC, the “PBM E-score” value is reported as -0.133.
ACGCTACG was tested, and the “PBM E-score” value was -0.126.
In the case of CTGTCCTC, the “PBM E-score” value is reported as -0.117.
GTCAGGTA was tested, and the “PBM E-score” value was -0.106.
ATAGAGCA was tested, and the “PBM E-score” value was -0.246.
With GTATGTGA the “PBM E-score” value was -0.198.
For CGTAAACA, the “PBM E-score” value was 0.013.
In the case of TCCCTTCA, the “PBM E-score” value is reported as -0.271.
With ACACCCAG the “PBM E-score” value was -0.171.
AATAAGGG was tested, and the “PBM E-score” value was -0.237.
CTATCCAA was tested, and the “PBM E-score” value was -0.171.
With AACATCGG the “PBM E-score” value was 0.244.
With CACATCGG the “PBM E-score” value was 0.242.
For GGCACCTA, the “PBM E-score” value was 0.0118.
With AGCATCTA the “PBM E-score” value was -0.163.
In the case of AGAGAATA, the “PBM E-score” value is reported as 0.101.
For AAACATTG, the “PBM E-score” value was -0.18.
In the case of AGTAATTC, the “PBM E-score” value is reported as 0.205.
AGTCGAGC was tested, and the “PBM E-score” value was -0.257.
TGTATACA was tested, and the “PBM E-score” value was -0.0606.
GTGCATTA was tested, and the “PBM E-score” value was -0.136.
With GCAGCCTA the “PBM E-score” value was -0.268.
ATTTAAGC was tested, and the “PBM E-score” value was 0.00622.
With CGAATCCA the “PBM E-score” value was -0.0549.
For TAGTAACA, the “PBM E-score” value was -0.119.
AAATTGTA was tested, and the “PBM E-score” value was -0.0715.
For ACGAGTTA, the “PBM E-score” value was -0.0893.
In the case of CCCCAAGA, the “PBM E-score” value is reported as -0.175.
With GCAGCTTA the “PBM E-score” value was -0.245.
In the case of CGCTATTC, the “PBM E-score” value is reported as 0.0769.
In the case of AATGCCTC, the “PBM E-score” value is reported as -0.107.
CAGCCGTC was tested, and the “PBM E-score” value was -0.0634.
For ATTGTATG, the “PBM E-score” value was -0.088.
With TAATTGCA the “PBM E-score” value was -0.0368.
For ATACCGCC, the “PBM E-score” value was 0.249.
For ATCTGGCC, the “PBM E-score” value was 0.149.
For GTCTTGTA, the “PBM E-score” value was -0.15.
With GTCTAGAC the “PBM E-score” value was -0.328.
In the case of CCTCCCAC, the “PBM E-score” value is reported as -0.0054.
TAATGGTA was tested, and the “PBM E-score” value was -0.0717.
For CTTATGCA, the “PBM E-score” value was -0.227.
GTAAGTAC was tested, and the “PBM E-score” value was -0.0225.
In the case of AGGTTCTC, the “PBM E-score” value is reported as 0.118.
For CTTCGGCA, the “PBM E-score” value was 0.274.
In the case of ACCAAATC, the “PBM E-score” value is reported as -0.0479.
With AGATTACC the “PBM E-score” value was 0.0388.
With CCACCCAC the “PBM E-score” value was -0.0738.
With AGTGAGGC the “PBM E-score” value was -0.0279.
GCCTGCTA was tested, and the “PBM E-score” value was -0.164.
In the case of AGCACGAA, the “PBM E-score” value is reported as -0.00404.
With TCAAACGA the “PBM E-score” value was -0.134.
With GACATATA the “PBM E-score” value was 0.0273.
CATTTTAC was tested, and the “PBM E-score” value was 0.106.
With ATTCATTC the “PBM E-score” value was -0.00171.
With AGGCCCCT the “PBM E-score” value was -0.194.
With TACTGCGA the “PBM E-score” value was -0.164.
With CACGGACA the “PBM E-score” value was 0.317.
With GAGACTTA the “PBM E-score” value was -0.198.
For AGCCATAA, the “PBM E-score” value was -0.243.
With AGACATCC the “PBM E-score” value was -0.00827.
CTCCATGA was tested, and the “PBM E-score” value was -0.0702.
AAGCGTAA was tested, and the “PBM E-score” value was -0.0513.
With AGTCACGA the “PBM E-score” value was -0.199.
In the case of CGTTACTA, the “PBM E-score” value is reported as -0.109.
CCGGAGGC was tested, and the “PBM E-score” value was 0.433.
CTCTCACA was tested, and the “PBM E-score” value was -0.141.
For GTGTGCCA, the “PBM E-score” value was -0.0713.
For CTGTGAGA, the “PBM E-score” value was -0.304.
For AAGCGCTC, the “PBM E-score” value was -0.0922.
With ATTCCTAC the “PBM E-score” value was -0.0128.
AAGTCAAT was tested, and the “PBM E-score” value was -0.113.
In the case of ATTATCCG, the “PBM E-score” value is reported as 0.393.
In the case of AAGACCGA, the “PBM E-score” value is reported as 0.277.
With AGCGCTAT the “PBM E-score” value was 0.0792.
For CGTTCTGA, the “PBM E-score” value was -0.194.
GCAGTTCA was tested, and the “PBM E-score” value was -0.0741.
With AGAACTCG the “PBM E-score” value was -0.0727.
In the case of CAGGTTTC, the “PBM E-score” value is reported as -0.0498.
For CCGGGTTA, the “PBM E-score” value was 0.353.
In the case of CTCATTCC, the “PBM E-score” value is reported as 0.133.
With ACATACCA the “PBM E-score” value was -0.0481.
GGTCGGGA was tested, and the “PBM E-score” value was 0.268.
For AACGTTAT, the “PBM E-score” value was -0.109.
For ATTGCGGG, the “PBM E-score” value was 0.24.
In the case of CCGGATCG, the “PBM E-score” value is reported as 0.396.
In the case of ACGTAACT, the “PBM E-score” value is reported as -0.264.
In the case of AGTATTTG, the “PBM E-score” value is reported as -0.217.
GATGACGC was tested, and the “PBM E-score” value was -0.146.
With AGAGCAAC the “PBM E-score” value was -0.322.
For CGCATGGC, the “PBM E-score” value was 0.187.
GAAAGACA was tested, and the “PBM E-score” value was -0.00253.
With CGGCAATC the “PBM E-score” value was 0.365.
For ATATGAAG, the “PBM E-score” value was -0.0819.
For CACTAGCC, the “PBM E-score” value was 0.0704.
ATGTGCAA was tested, and the “PBM E-score” value was -0.197.
With CACAAAAA the “PBM E-score” value was 0.168.
With AAAGTTAG the “PBM E-score” value was -0.109.
With ATGTCGCC the “PBM E-score” value was -0.0784.
With CATACCAG the “PBM E-score” value was -0.202.
GCTGGTTA was tested, and the “PBM E-score” value was -0.124.
In the case of AACAGCTC, the “PBM E-score” value is reported as -0.15.
In the case of GCGCCCCA, the “PBM E-score” value is reported as 0.0946.
For AGGAAATG, the “PBM E-score” value was -0.156.
For TAAGTAAA, the “PBM E-score” value was -0.147.
AACCGCCT was tested, and the “PBM E-score” value was 0.102.
With ACGATTAT the “PBM E-score” value was 0.0283.
For AGCAGGTG, the “PBM E-score” value was -0.117.
CAGTTGCG was tested, and the “PBM E-score” value was 0.0774.
AAGCTAAA was tested, and the “PBM E-score” value was -0.139.
ACAGTTTG was tested, and the “PBM E-score” value was -0.22.
ATTTTGAG was tested, and the “PBM E-score” value was 0.0528.
CGGTCACC was tested, and the “PBM E-score” value was 0.0808.
With AGCGGGCA the “PBM E-score” value was 0.0386.
In the case of ACTGTACG, the “PBM E-score” value is reported as -0.188.
CAAGCCAG was tested, and the “PBM E-score” value was -0.222.
AGCCTATC was tested, and the “PBM E-score” value was -0.178.
For CAAATGGA, the “PBM E-score” value was -0.0675.
In the case of CCGTACAA, the “PBM E-score” value is reported as 0.0331.
CGAGCCAG was tested, and the “PBM E-score” value was 0.096.

Source: the supplement of paper PMC3334620
